Reference: the supplement of paper PMC11417369
± gives the standard deviation of the averaged measurements. The list shows a part of the results.

Test system: PfAP2-EXP AP2 domain (GST-tagged)
Assay: gcPBM binding intensity (ln(normalized median fluorescence intensity)); higher = stronger DNA binding
Method in brief: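 Probes on an Agilent 4 × 180k array were primer-extended, double-stranded and 36 bp long, taken from intergenic genomic regions, with negative controls added. GST-tagged P. falciparum DNA-binding domains from E. coli, about 25 μg on average, were applied to the array for 1 h in 1× PBS containing 1% milk, 0.2 mg/ml BSA, 0.5% salmon testes DNA and 0.03% Triton X-100. Binding intensity, obtained after Alexa488 anti-GST antibody detection and a 488 nm scan, is the highest Masliner-normalised natural-log median intensity across replicate spots of either probe orientation.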

| Sequence | gcPBM binding intensity (ln) |
| --- | --- |
| CTTGCAAAAAGTATATGTACATATATATATATATAT [XGTACX_site5792] | 9.9 ± 0.2 |
| TTTCCTAGCACATGCACACAAAAAAAAAAAAAAAAA [CACACA_site1404] | 8.35 ± 0.35 |
| ATGTTCGATGATAAATGTACAAAAATAATGGAAGTA [XGTACX_site1916] | 9.06 ± 0.52 |
| TATAAAAATATTGAAAGTACTTATTAAAATATTATT [XGTACX_site3701] | 8.31 ± 0.4 |
| TATTCCTAATTGACAACACACACAACAAAAAAGGGA [CACACA_site8350] | 9.03 ± 0.63 |
| AGAATTATTTTATGTTTGCACTTTTTTTTTCTATAA [GTGCAC_site9876] | 8.9 ± 0.39 |
| TAATGAAATATTATGTGTACTTAAAAATTATTAAAT [XGTACX_site5261] | 8.17 ± 0.28 |
| ATTATTAACATATATATACACACGAAAAAATTATAT [CACACA_site625] | 8.87 ± 0.47 |
| ATATATTTTTTGAATACACACATATTATCTGTAATA [CACACA_site4826] | 8.37 ± 0.38 |
| TATAAATAGAGACACACACACATATAAATAAATATT [CACACA_site7854] | 8.75 ± 0.35 |
| TATATTTCTTCTATAACATGCAGATATATGAAAATA [TGCATGCA_site971] | 8.55 ± 0.23 |
| CTATAATATGGTATTACACACTGTTATAAGTATGGC [CACACA_site7068] | 8.46 ± 0.42 |
| TTTTTGTTCTATATGGTGCATGTTTATATTCGTATT | 9.38 ± 0.29 |
| ATTAGCAACATTGATAAATATAAACACACGAAAACA [TGCATGCA_negctrl_site97] | 8.98 ± 0.43 |
| CACGTATATATATATACACACACATATATATATGTA [CACACA_site7948] | 8.73 ± 0.31 |
| CATGTTTATGCCGTTTGTACATATATATCTAAAAAA [XGTACX_site4336] | 8.74 ± 0.37 |
| TTTTAGAAATTTACTAAACTTTATATAACTATTGAA [TGCATGCA_negctrl_site280] | 8.02 ± 0.45 |
| ATACCATAAATATTGTGTACATAAATATGTTAGTAA [XGTACX_site6077] | 8.36 ± 0.31 |
| ATAAGTAAAAATAAAAAAAAAATATATATATATATA [CACACA_negctrl_site1816] | 10 ± 0.37 |
| ATGATTATAATTTAAAATATTTTACATAACCATTTC [GTGCAC_negctrl_site297] | 8.41 ± 0.49 |
| TTTAGCTATTATAGCTGTACAATGATAAAATAAATT [XGTACX_site6318] | 8.45 ± 0.38 |
| GTTCATATCTTTTGAGCACACATATATATATATAAA [CACACA_site9099] | 8.56 ± 0.42 |

| Sequence | gcPBM binding intensity (ln) |
| --- | --- |
| AATGAATCCTTATATACACACATTATTATATTATAT [CACACA_site3108] | 8.69 ± 0.51 |
| ATTGATACATCCAATACACACTACATATAATGATGT [CACACA_site8561] | 8.4 ± 0.3 |
| ATATTAATAATATATGCATGCATTAACATATTGAAA [TGCATGCA_site951] | 9.71 ± 0.12 |
| GTATGTATGTATATATGTACACATTATTATTTAATG [XGTACX_site5802] | 8.78 ± 0.11 |
| TTTTTTATATATACATATATATAAATATATATAACT [GTGCAC_negctrl_site385] | 8.06 ± 0.45 |
| GAGAAAAGGAAATTCACACATATAAAGAAAGATCTA [CACACA_site5420] | 8.5 ± 0.55 |
| TATAATGAGGATAATAGTACATATGAATACAAAAAA [XGTACX_site3665] | 8.86 ± 0.45 |
| GCCATAAAAATATATACACACATAAAAAAAAATTAT [CACACA_site1176] | 8.36 ± 0.53 |
| TACACAAGCAGACACACACACATATAGATTTATATA [CACACA_site6715] | 8.57 ± 0.69 |
| TTAATATTGTATTTCACACATAATTTAATATACTCA [CACACA_site5678] | 8.26 ± 0.42 |
| TATAGGAATATATGGTGTACCTATAAATCTGACATA [XGTACX_site8111] | 8.46 ± 0.33 |
| TTAAATAAGTAATTATGTACATATAATATTCTTTAT [XGTACX_site5280] | 8.3 ± 0.18 |
| TAGAAAATATAAAAATGTACGTAAATAAAATGTGCA [XGTACX_site3459] | 9.18 ± 0.43 |
| ATTTATATATTTATACGTACTTATATATTGTTACAT [XGTACX_site6254] | 8.9 ± 0.28 |
| AAAAATAAAAATTGCACACTAAAAAATTACGCACGA [CACACA_site3418] | 8.59 ± 0.12 |
| AATTATATTACAAACTGTACATATATAATTTGTCCA [XGTACX_site6009] | 8.23 ± 0.26 |
| ATCCGAGTGTGAAATACACACATGATAATGTGAATG [CACACA_site919] | 8.37 ± 0.33 |
| TCTTAAGGAAAAGAGTGTACAGAAATTTTTATTAAC [XGTACX_site6139] | 8.67 ± 0.48 |
| ATATATAGATAATCAAGTACATAACAAGATATAAGA [XGTACX_site2186] | 8.81 ± 0.47 |
| AAATGTGAAGTGAATACACACCTAATAAATATAACA [CACACA_site5727] | 8.64 ± 0.38 |
| TACTGATCTTTCTAGGTGCGCTGCTACCATTATCGT [GTGCAC_site9538] | 8.74 ± 0.43 |
| ACATGAAATGTTTAAAGTACATATATAAATTTTTTT [XGTACX_site4519] | 8.16 ± 0.33 |
